{"source": "patent US20240076343A1", "about": "(CEPHALON, published 2024)", "binders": {"B1": {"name": "1H3-hIgG1-L6-hCD25(1-164)-L20-hIL-2 (D20Y) (other)", "heavy": "EVQLVESGGGLVQPGRSLKLSCAVSGFTFSDYAMAWVRQAPKKGLEWVATISYDGSRTYYRDSVKGRFTISRDNAKITLYLQMDSLRSEDTATYYCARHGSGYFDYWGQGVMVTVSS[not shown - human IgG1 constant region]SGGGGSELCDDDPPEIPHATFKAMAYKEGTMLNCECKRGFRRIKSGSLYMLCTGNSSHSSWDNQCQCTSSATRNTTKQVTPQPEEQKERKTTEMQSPMQPVDQASLPGHCREPPPWENEATERIYHFVVGQMVYYQCVQGYRALHRGPAESVCKMTHGKTRWTQPQLICTSGGGGSGGGGSGGGGSGGGS[not shown - about 150 residues]", "light": "DTVLTQSPALAVSPGERVTISCRASESVRTGVHWYQQKPGQQPKLLIYGASNLESGVPARFSGSGSGTDFTLTIDPVEADDTATYFCQQSWNDPFTFGSGTKLEIKRTVAAPSVFIFPPSDEQLKSGTASVVCLLNNFYPREAKVQWKVDNALQSGNSQESVTEQDSKDSTYSLSSTLTLSKADYEKHKVYACEVTHQGLSSPVTKSFNRGEC"}, "B2": {"name": "1H3-hIgG1-L6-hCD25(1-164)-L20-hIL-2 (D20R) (other)", "heavy": "EVQLVESGGGLVQPGRSLKLSCAVSGFTFSDYAMAWVRQAPKKGLEWVATISYDGSRTYYRDSVKGRFTISRDNAKITLYLQMDSLRSEDTATYYCARHGSGYFDYWGQGVMVTVSS[not shown - human IgG1 constant region]SGGGGSELCDDDPPEIPHATFKAMAYKEGTMLNCECKRGFRRIKSGSLYMLCTGNSSHSSWDNQCQCTSSATRNTTKQVTPQPEEQKERKTTEMQSPMQPVDQASLPGHCREPPPWENEATERIYHFVVGQMVYYQCVQGYRALHRGPAESVCKMTHGKTRWTQPQLICTSGGGGSGGGGSGGGGSGGGS[not shown - about 150 residues]", "light": "B1 light"}, "B3": {"name": "1H3-hIgG1-L6-hCD25(1-164)-L20-hIL-2 (D20F) (other)", "heavy": "EVQLVESGGGLVQPGRSLKLSCAVSGFTFSDYAMAWVRQAPKKGLEWVATISYDGSRTYYRDSVKGRFTISRDNAKITLYLQMDSLRSEDTATYYCARHGSGYFDYWGQGVMVTVSS[not shown - human IgG1 constant region]SGGGGSELCDDDPPEIPHATFKAMAYKEGTMLNCECKRGFRRIKSGSLYMLCTGNSSHSSWDNQCQCTSSATRNTTKQVTPQPEEQKERKTTEMQSPMQPVDQASLPGHCREPPPWENEATERIYHFVVGQMVYYQCVQGYRALHRGPAESVCKMTHGKTRWTQPQLICTSGGGGSGGGGSGGGGSGGGS[not shown - about 150 residues]", "light": "B1 light"}, "B4": {"name": "1H3-hIgG1-L6-hCD25(1-164)-L20-hIL-2 (D84K) (other)", "heavy": "EVQLVESGGGLVQPGRSLKLSCAVSGFTFSDYAMAWVRQAPKKGLEWVATISYDGSRTYYRDSVKGRFTISRDNAKITLYLQMDSLRSEDTATYYCARHGSGYFDYWGQGVMVTVSS[not shown - human IgG1 constant region]SGGGGSELCDDDPPEIPHATFKAMAYKEGTMLNCECKRGFRRIKSGSLYMLCTGNSSHSSWDNQCQCTSSATRNTTKQVTPQPEEQKERKTTEMQSPMQPVDQASLPGHCREPPPWENEATERIYHFVVGQMVYYQCVQGYRALHRGPAESVCKMTHGKTRWTQPQLICTSGGGGSGGGGSGGGGSGGGS[not shown - about 150 residues]", "light": "B1 light"}, "B5": {"name": "1H3-hIgG1-L6-hCD25(1-164)-L20-hIL-2 (S87A) (other)", "heavy": "EVQLVESGGGLVQPGRSLKLSCAVSGFTFSDYAMAWVRQAPKKGLEWVATISYDGSRTYYRDSVKGRFTISRDNAKITLYLQMDSLRSEDTATYYCARHGSGYFDYWGQGVMVTVSS[not shown - human IgG1 constant region]SGGGGSELCDDDPPEIPHATFKAMAYKEGTMLNCECKRGFRRIKSGSLYMLCTGNSSHSSWDNQCQCTSSATRNTTKQVTPQPEEQKERKTTEMQSPMQPVDQASLPGHCREPPPWENEATERIYHFVVGQMVYYQCVQGYRALHRGPAESVCKMTHGKTRWTQPQLICTSGGGGSGGGGSGGGGSGGGS[not shown - about 150 residues]", "light": "B1 light"}, "B6": {"name": "1H3-hIgG1-L6-hCD25(1-164)-L20-hIL-2 (N88Y) (other)", "heavy": "EVQLVESGGGLVQPGRSLKLSCAVSGFTFSDYAMAWVRQAPKKGLEWVATISYDGSRTYYRDSVKGRFTISRDNAKITLYLQMDSLRSEDTATYYCARHGSGYFDYWGQGVMVTVSS[not shown - human IgG1 constant region]SGGGGSELCDDDPPEIPHATFKAMAYKEGTMLNCECKRGFRRIKSGSLYMLCTGNSSHSSWDNQCQCTSSATRNTTKQVTPQPEEQKERKTTEMQSPMQPVDQASLPGHCREPPPWENEATERIYHFVVGQMVYYQCVQGYRALHRGPAESVCKMTHGKTRWTQPQLICTSGGGGSGGGGSGGGGSGGGS[not shown - about 150 residues]", "light": "B1 light"}, "B7": {"name": "1H3-hIgG1-L6-hCD25(1-164)-L20-hIL-2 (N88D) (other)", "heavy": "EVQLVESGGGLVQPGRSLKLSCAVSGFTFSDYAMAWVRQAPKKGLEWVATISYDGSRTYYRDSVKGRFTISRDNAKITLYLQMDSLRSEDTATYYCARHGSGYFDYWGQGVMVTVSS[not shown - human IgG1 constant region]SGGGGSELCDDDPPEIPHATFKAMAYKEGTMLNCECKRGFRRIKSGSLYMLCTGNSSHSSWDNQCQCTSSATRNTTKQVTPQPEEQKERKTTEMQSPMQPVDQASLPGHCREPPPWENEATERIYHFVVGQMVYYQCVQGYRALHRGPAESVCKMTHGKTRWTQPQLICTSGGGGSGGGGSGGGGSGGGS[not shown - about 150 residues]", "light": "B1 light"}}}
{"target": "T1, high-affinity hIL-2 receptor (IL-2Rαβγ) (human, UniProt P01589 22-272; P14784 27-551; P31785 23-369)", "T1 sequence 1": "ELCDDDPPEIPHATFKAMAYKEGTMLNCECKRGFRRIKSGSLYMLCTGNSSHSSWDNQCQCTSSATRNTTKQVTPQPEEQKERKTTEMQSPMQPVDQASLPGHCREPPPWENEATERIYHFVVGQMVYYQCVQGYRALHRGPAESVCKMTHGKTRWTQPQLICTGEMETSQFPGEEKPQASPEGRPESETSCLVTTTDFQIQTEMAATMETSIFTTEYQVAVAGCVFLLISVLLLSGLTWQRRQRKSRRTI", "T1 sequence 2": "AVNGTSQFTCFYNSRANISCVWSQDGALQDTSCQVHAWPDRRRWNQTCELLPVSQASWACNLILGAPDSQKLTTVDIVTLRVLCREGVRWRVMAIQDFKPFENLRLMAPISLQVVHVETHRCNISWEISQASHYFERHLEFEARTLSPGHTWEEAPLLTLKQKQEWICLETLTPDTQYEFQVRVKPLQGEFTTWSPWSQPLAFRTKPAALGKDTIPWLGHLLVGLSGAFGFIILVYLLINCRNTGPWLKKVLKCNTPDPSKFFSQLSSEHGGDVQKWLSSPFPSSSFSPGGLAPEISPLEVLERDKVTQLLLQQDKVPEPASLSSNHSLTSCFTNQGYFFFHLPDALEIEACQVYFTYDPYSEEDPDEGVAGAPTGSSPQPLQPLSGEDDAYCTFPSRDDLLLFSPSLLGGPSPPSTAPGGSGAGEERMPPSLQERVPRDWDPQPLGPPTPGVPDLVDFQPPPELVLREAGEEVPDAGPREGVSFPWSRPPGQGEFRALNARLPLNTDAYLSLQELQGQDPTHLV", "T1 sequence 3": "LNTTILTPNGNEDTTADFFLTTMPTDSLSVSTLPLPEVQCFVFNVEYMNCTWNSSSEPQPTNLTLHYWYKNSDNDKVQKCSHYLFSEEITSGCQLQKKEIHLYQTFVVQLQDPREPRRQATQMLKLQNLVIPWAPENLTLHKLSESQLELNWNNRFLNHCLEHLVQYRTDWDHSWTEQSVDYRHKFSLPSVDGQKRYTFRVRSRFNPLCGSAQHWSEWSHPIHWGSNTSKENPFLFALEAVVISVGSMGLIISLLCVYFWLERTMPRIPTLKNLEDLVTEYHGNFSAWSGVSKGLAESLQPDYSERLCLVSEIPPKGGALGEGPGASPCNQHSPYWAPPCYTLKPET", "assay": "cell-based or functional assay", "units": {"Fold change from rhIL-2 (NK-92), pSTAT5 titration": "fold"}}
{"binder": "B1", "Fold change from rhIL-2 (NK-92), pSTAT5 titration": "> 10000"}
{"binder": "B2", "Fold change from rhIL-2 (NK-92), pSTAT5 titration": "> 10000"}
{"binder": "B3", "Fold change from rhIL-2 (NK-92), pSTAT5 titration": "> 10000"}
{"binder": "B4", "Fold change from rhIL-2 (NK-92), pSTAT5 titration": "> 10000"}
{"binder": "B5", "Fold change from rhIL-2 (NK-92), pSTAT5 titration": 305}
{"binder": "B6", "Fold change from rhIL-2 (NK-92), pSTAT5 titration": "> 10000"}
{"binder": "B7", "Fold change from rhIL-2 (NK-92), pSTAT5 titration": 393}
{"target": "T2, intermediate affinity hIL-2 receptor complex (IL-2Rβγ) (human, UniProt P14784 27-551; P31785 23-369)", "T2 sequence 1": "T1 sequence 2", "T2 sequence 2": "T1 sequence 3", "assay": "cell-based or functional assay", "units": {"Fold change from rhIL-2 (TF1 + IL-2Rβ), pSTAT5 titration": "fold"}}
{"binder": "B1", "Fold change from rhIL-2 (TF1 + IL-2Rβ), pSTAT5 titration": "> 10000"}
{"binder": "B2", "Fold change from rhIL-2 (TF1 + IL-2Rβ), pSTAT5 titration": "> 10000"}
{"binder": "B3", "Fold change from rhIL-2 (TF1 + IL-2Rβ), pSTAT5 titration": "> 10000"}
{"binder": "B4", "Fold change from rhIL-2 (TF1 + IL-2Rβ), pSTAT5 titration": "> 10000"}
{"binder": "B5", "Fold change from rhIL-2 (TF1 + IL-2Rβ), pSTAT5 titration": 44}
{"binder": "B6", "Fold change from rhIL-2 (TF1 + IL-2Rβ), pSTAT5 titration": "> 10000"}
{"binder": "B7", "Fold change from rhIL-2 (TF1 + IL-2Rβ), pSTAT5 titration": "> 10000"}
